Test results taken from article PMC10668032.
The other results are listed elsewhere or left out. At the low end of the ranking, values are background and their order means little.

Each sequence was assayed against SIX1-Q177R homeodomain (UniProt Q15475) (assay: universal protein binding microarray). Details: Universal all-10-mer PBM (8x60K, AMADID 030236), 300 nM GST-tagged protein, Alexa Fluor 488 anti-GST; buffer, salt, pH and temperature not stated; high values mean tight binding; most listed sequences are background and not binding sites; double strand, one strand shown.
With AAACGGGC the binding signal was -0.0116 E-score.
Work on CGACCGTA yielded a binding signal of 0.0687 E-score.
CCGCAACC showed a binding signal of 0.136 E-score.
AGCCTAAG gave a binding signal of -0.235 E-score.
For CGGTCATA, the binding signal was -0.155 E-score.
AGTGAGAA showed a binding signal of -0.156 E-score.
Sequence TGCGACCA has a binding signal of -0.151 E-score.
ACAGCGCG showed a binding signal of -0.0663 E-score.
With AAAAACGC the binding signal was -0.129 E-score.
GGGGGTGA showed a binding signal of 0.132 E-score.
In the case of AAATCGAC, the binding signal is reported as -0.165 E-score.
AAAATAGG gave a binding signal of -0.139 E-score.
AGATATTG showed a binding signal of -0.021 E-score.
Work on AGTCTCTG yielded a binding signal of -0.203 E-score.
For ACAATTGA, the binding signal was 0.101 E-score.
With AGCAATTA the binding signal was -0.219 E-score.
Work on GGTAAGTA yielded a binding signal of 0.131 E-score.
TAGGCCCA gave a binding signal of -0.229 E-score.
AAAGGTTC showed a binding signal of -0.16 E-score.
ACCTACCC gave a binding signal of 0.252 E-score.
AAGACAAG showed a binding signal of 0.0174 E-score.
AACTTAGG showed a binding signal of -0.16 E-score.
For TATCCTAA, the binding signal was -0.08 E-score.
With ACCTCGCT the binding signal was -0.019 E-score.
CAGTAGAC showed a binding signal of -0.0563 E-score.
GCACCTAA was tested, and the binding signal was 0.024 E-score.
With ACACAGTC the binding signal was -0.00681 E-score.
Sequence CCGACGGA has a binding signal of 0.112 E-score.
ACGTCTAC showed a binding signal of -0.17 E-score.
In the case of AAGTACGT, the binding signal is reported as 0.00622 E-score.
AGGCAGTA gave a binding signal of -0.14 E-score.
For CTGCGGCC, the binding signal was -0.13 E-score.
GAATTTCA gave a binding signal of -0.436 E-score.
CAAGCCTA was tested, and the binding signal was -0.0739 E-score.
With AAGCAATA the binding signal was -0.0126 E-score.
Work on TACGTGGA yielded a binding signal of -0.168 E-score.
GGTTTGCA was tested, and the binding signal was -0.0722 E-score.
For CGCCCCGA, the binding signal was 0.0506 E-score.
CCGATCAA was tested, and the binding signal was -0.149 E-score.
GACTAGAA showed a binding signal of -0.0976 E-score.
With GGATAGAA the binding signal was -0.137 E-score.
Work on TTCAACAA yielded a binding signal of -0.0323 E-score.
For CGTTTATC, the binding signal was -0.193 E-score.
Sequence CTTTGGTA has a binding signal of -0.277 E-score.
Work on ATCGAAAT yielded a binding signal of -0.25 E-score.
In the case of AACTAAGT, the binding signal is reported as -0.121 E-score.
In the case of CATAGCAG, the binding signal is reported as -0.089 E-score.
CCGGCAGG showed a binding signal of 0.0675 E-score.
Work on CCCCGACA yielded a binding signal of 0.324 E-score.
AAGCAGAC showed a binding signal of -0.235 E-score.
ACATGATG showed a binding signal of -0.171 E-score.
AATGAAGG showed a binding signal of -0.0395 E-score.
AAACCACT was tested, and the binding signal was -0.256 E-score.
Sequence GTTCGAGA has a binding signal of 0.0673 E-score.
CGCTCAAA was tested, and the binding signal was -0.0999 E-score.
With AGCCCCCT the binding signal was -0.101 E-score.
Work on GGCGTTAA yielded a binding signal of 0.133 E-score.
Work on AGCCAAGA yielded a binding signal of -0.126 E-score.
CCCAGTGC was tested, and the binding signal was 0.148 E-score.
In the case of AGTGTTAC, the binding signal is reported as 0.387 E-score.
CCCCTCCC gave a binding signal of 0.214 E-score.
CCAAATCG was tested, and the binding signal was -0.134 E-score.
Work on CCGGACGC yielded a binding signal of 0.114 E-score.
CAGCGCCC showed a binding signal of -0.262 E-score.
In the case of ATGGGTTA, the binding signal is reported as -0.0404 E-score.
CGGCGTGC was tested, and the binding signal was -0.00421 E-score.
GAGATCAC gave a binding signal of 0.0799 E-score.
GTCTCCCA gave a binding signal of -0.0425 E-score.
In the case of CCTTAGTC, the binding signal is reported as -0.0754 E-score.
Work on AGTGGCGA yielded a binding signal of 0.0503 E-score.
For CCGGTACA, the binding signal was 0.224 E-score.
Sequence ACCGGAGA has a binding signal of 0.138 E-score.
GTAACCAC was tested, and the binding signal was -0.0259 E-score.
In the case of ATTAATGG, the binding signal is reported as -0.0793 E-score.
Work on GAAAACTC yielded a binding signal of -0.149 E-score.
With AATTCTGC the binding signal was -0.163 E-score.
Sequence CGAACGCG has a binding signal of -0.0372 E-score.
In the case of CGACGGGA, the binding signal is reported as 0.0349 E-score.
ACCGAACG showed a binding signal of -0.00361 E-score.
Work on CGCCGGAC yielded a binding signal of 0.0574 E-score.
AGCTGAAT showed a binding signal of -0.187 E-score.
GTCATGGA gave a binding signal of -0.0938 E-score.
ACCCCTTA showed a binding signal of 0.228 E-score.
For GAGGTAGC, the binding signal was -0.0637 E-score.
In the case of CGGGGGAA, the binding signal is reported as 0.0166 E-score.
For CCTAGAAC, the binding signal was -0.0143 E-score.
For CAGTTTAG, the binding signal was -0.0134 E-score.
ATCAACTA showed a binding signal of -0.0013 E-score.
Work on AACGAGCC yielded a binding signal of 0.0247 E-score.
Sequence GCACAACC has a binding signal of -0.072 E-score.
ATAGTGTC gave a binding signal of 0.385 E-score.
Sequence CTGCACCA has a binding signal of 0.111 E-score.
With CGAACGTC the binding signal was -0.2 E-score.
For AGAGTTGG, the binding signal was -0.156 E-score.
GTTACGGA gave a binding signal of 0.164 E-score.
GCACGACA was tested, and the binding signal was 0.21 E-score.
For AACTCTAG, the binding signal was -0.0303 E-score.
AGATACGC showed a binding signal of 0.0126 E-score.
AGGTGCAA showed a binding signal of 0.169 E-score.
For CCAGAGTA, the binding signal was 0.132 E-score.
ACGTTAGC showed a binding signal of -0.0505 E-score.
Work on CTACCCTC yielded a binding signal of 0.117 E-score.
GGTGGCAC showed a binding signal of 0.031 E-score.
Work on CTCAGGTC yielded a binding signal of -0.182 E-score.
GGAAAGGA gave a binding signal of 0.0716 E-score.
In the case of GGCAAAAC, the binding signal is reported as -0.206 E-score.
ACTTGGAG showed a binding signal of -0.0342 E-score.
Sequence CGATTACC has a binding signal of 0.0967 E-score.
ACACACAT was tested, and the binding signal was 0.201 E-score.
For CACTGGAG, the binding signal was 0.182 E-score.
With ATGAGGTG the binding signal was 0.304 E-score.
CCGTTCCC was tested, and the binding signal was -0.00604 E-score.
For ACGTTCAC, the binding signal was -0.201 E-score.
GGTTCAAC showed a binding signal of 0.0843 E-score.
CACCCCAA was tested, and the binding signal was 0.336 E-score.
For CTAGCTTA, the binding signal was -0.222 E-score.
For TGGTACAA, the binding signal was -0.0616 E-score.
CAGAGACC gave a binding signal of -0.136 E-score.
Work on CTCATCTA yielded a binding signal of -0.204 E-score.
Sequence TGCAGGAA has a binding signal of 0.00358 E-score.
AAGGTTGC gave a binding signal of -0.0264 E-score.
ACAAATGG showed a binding signal of -0.0491 E-score.
In the case of TGGGCGAA, the binding signal is reported as -0.0954 E-score.
CCGGCTAA gave a binding signal of 0.0286 E-score.
AATATCTG was tested, and the binding signal was -0.0578 E-score.
In the case of GCAGCTGA, the binding signal is reported as -0.0176 E-score.
Sequence CGCCTCAA has a binding signal of -0.223 E-score.
With CCTCGCCC the binding signal was 0.212 E-score.
Sequence AAAGAGCA has a binding signal of -0.14 E-score.
For AGCGTACT, the binding signal was -0.0284 E-score.
Sequence CTTAGACC has a binding signal of -0.118 E-score.
With AGCATCCA the binding signal was -0.317 E-score.
In the case of CACGCTCA, the binding signal is reported as 0.155 E-score.
CTGTGTAA gave a binding signal of 0.153 E-score.
ATGGTTAA was tested, and the binding signal was -0.113 E-score.
In the case of GAACGAGC, the binding signal is reported as 0.105 E-score.
In the case of ACGCCAAT, the binding signal is reported as 0.0925 E-score.
In the case of GCCTTATA, the binding signal is reported as -0.00245 E-score.
For AATGCCAA, the binding signal was -0.153 E-score.
CCCGCGGC was tested, and the binding signal was 0.0154 E-score.
With ACACTCTA the binding signal was 0.367 E-score.
With AAAATGTC the binding signal was -0.286 E-score.
With GGGGTGAA the binding signal was 0.154 E-score.
For CCAGGTCA, the binding signal was -0.0464 E-score.
In the case of CAGCAAAC, the binding signal is reported as -0.104 E-score.
AAGTTGCT was tested, and the binding signal was -0.303 E-score.
ACTTCCCA was tested, and the binding signal was -0.0837 E-score.
In the case of GACGCATA, the binding signal is reported as -0.251 E-score.
In the case of GAGAGAGC, the binding signal is reported as -0.153 E-score.
AGATGTGA was tested, and the binding signal was -0.00781 E-score.
Work on AGACGGGA yielded a binding signal of -0.0737 E-score.
GCCATAGA showed a binding signal of -0.145 E-score.
TCGTGGCA gave a binding signal of -0.169 E-score.
With GCTCACAC the binding signal was 0.276 E-score.
CCTCTAAA showed a binding signal of -0.176 E-score.
With CTCCATCC the binding signal was -0.128 E-score.
Sequence GTCGACAC has a binding signal of 0.414 E-score.
Work on CCGGCTCC yielded a binding signal of 0.153 E-score.
CCATACAG showed a binding signal of 0.00526 E-score.
AGCCGGAT was tested, and the binding signal was -0.0554 E-score.
With CGCATGAG the binding signal was -0.158 E-score.
With ACGTGTCC the binding signal was 0.347 E-score.
CACGTTCA was tested, and the binding signal was 0.158 E-score.
With GGGATTAA the binding signal was -0.0404 E-score.
CGATCCAC gave a binding signal of 0.238 E-score.
In the case of AGACCGGG, the binding signal is reported as -0.17 E-score.
For CCTATTGA, the binding signal was -0.0193 E-score.
CGGTATAA gave a binding signal of 0.0747 E-score.
In the case of CGGTGGCC, the binding signal is reported as -0.16 E-score.
In the case of CTTTCTCA, the binding signal is reported as -0.15 E-score.
With CCTATAGG the binding signal was -0.238 E-score.
With AACCTTCA the binding signal was -0.0173 E-score.
